According to PMC6919601, “Identification of Plasmodium dipeptidyl aminopeptidase allosteric inhibitors by high throughput screening” (PLoS ONE, 2019):
Where “and” joins values, the source holds several entries; their conditions need not be identical. Equal values may be shown once. Out of some 110,000 compounds screened, about 230 (0.21%) showed an effect of 50% or more. The list shows a part of the results.

Molecular target: DPAP1 (Plasmodium falciparum, UniProt Q8IIJ9)
Test: primary screen, percent inhibition; read by cleavage of a fluorogenic dipeptide substrate; higher = more effect of the substance
Design: species or system P. falciparum D10 trophozoite lysates; single well
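Note: 30 min substrate incubation versus DMSO and 10 µM JCP410 controls.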

Chain of DPAP1 (Q8IIJ9 whole entry, looked up): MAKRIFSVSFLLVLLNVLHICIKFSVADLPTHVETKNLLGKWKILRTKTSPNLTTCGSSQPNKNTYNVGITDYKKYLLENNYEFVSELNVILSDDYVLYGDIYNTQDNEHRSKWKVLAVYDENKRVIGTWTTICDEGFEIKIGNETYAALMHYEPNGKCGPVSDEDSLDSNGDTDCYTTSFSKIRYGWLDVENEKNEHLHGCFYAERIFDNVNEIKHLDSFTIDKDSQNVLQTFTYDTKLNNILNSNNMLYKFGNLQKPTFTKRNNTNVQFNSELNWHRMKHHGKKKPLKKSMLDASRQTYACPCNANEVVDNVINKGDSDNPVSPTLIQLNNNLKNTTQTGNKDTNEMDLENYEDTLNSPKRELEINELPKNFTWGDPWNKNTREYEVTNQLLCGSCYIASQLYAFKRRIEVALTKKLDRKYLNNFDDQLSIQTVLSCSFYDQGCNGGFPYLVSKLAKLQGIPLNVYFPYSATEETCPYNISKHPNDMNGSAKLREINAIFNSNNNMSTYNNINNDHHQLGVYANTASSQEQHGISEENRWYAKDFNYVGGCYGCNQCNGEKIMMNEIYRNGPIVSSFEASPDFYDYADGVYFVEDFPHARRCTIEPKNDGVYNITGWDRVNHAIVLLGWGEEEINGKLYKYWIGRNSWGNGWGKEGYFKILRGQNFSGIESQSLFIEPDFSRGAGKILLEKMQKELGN

First: CCOc1ccc(C(=O)CC(=O)C(=O)NCc2ccc(F)cc2)cc1
Second: NS(=O)(=O)c1ccc(CCNC(=O)c2nc(SCc3ccc(F)cc3)ncc2Cl)cc1
The “% Inhibition @ 10 uM” value of the first is higher: 4.01% for the first, 4% for the second.

Going from O=C(O)C1c2ccccc2C(=O)N(Cc2ccc(F)cc2)C1c1ccc(O)c(O)c1 (stereo not shown) to CC1=C(C(=O)OCc2ccccc2)C(c2ccc(F)c(Br)c2)CC(=O)N1 (stereo not shown), the “% Inhibition @ 10 uM” value rises from -0.795% to 4.55%.

First: COc1ccc(-c2cc(C(=O)N3C(C)CCCC3C)no2)cc1 (stereo not shown)
Second: COc1ccc(C2C=C(c3ccc(Cl)cc3OC(F)F)Nc3ncnn32)cc1 (stereo not shown)
The “% Inhibition @ 10 uM” value of the first is higher: 1.37% for the first, -5.05% for the second.

First: CCC1COC(c2cccn2Cc2cc(C)ccc2C)=N1 (stereo not shown)
Second: Cc1ccc(C)c(NC(=O)c2cc[n+](C)cc2)c1
The “% Inhibition @ 10 uM” value of the first is lower: -7.21% for the first, -0.864% for the second.

Compared with Oc1nncc2c3ccccc3n(Cc3ccccc3F)c12, CCc1ccccc1NS(=O)(=O)Cc1ccccc1 is higher in “% Inhibition @ 10 uM” value: -3.53% for the first, -0.8% for the second.

Compared with C1=C2C3CCCCC3OC(c3cccnc3)C2CCC1 (stereo not shown), COCCNC(=O)c1ccc2c(c1)ncn2C1CCCC1 is lower in “% Inhibition @ 10 uM” value: 4.62% for the first, 2.05% for the second.

First: Cc1nc2c(c(C)nn2C)c(C)c1CCC(=O)NC1CCCCCC1
Second: CCC(C(=O)NCc1ccc(C)cc1)n1ccc2cc(S(=O)(=O)N3CCCCC3)ccc21 (stereo not shown)
The “% Inhibition @ 10 uM” value of the first is higher: 4.14% for the first, 3.33% for the second.

Going from Cc1ccc(Cn2cc(CCC(=O)NCCN3CCCC3)c3ccccc32)cc1 to COc1ccc(C)cc1NC(=O)CCc1ccccc1, the “% Inhibition @ 10 uM” value falls from 3.02% to -0.636%.

Going from CC(C)NC(=S)N1CCn2c(nc3ccccc32)C1 to CC(NC(=O)CCCn1ncn2c(cc3occc32)c1=O)c1ccccc1 (stereo not shown), the “% Inhibition @ 10 uM” value falls from -2.88% to -7.54%.

First: Cc1ccc2c(c1)-c1c(cnn1CC(=O)N1CCN(C(=O)c3ccco3)CC1)CO2
Second: CCOC(=O)N1CCN(C(=O)Cn2cnc3c(nnn3-c3ccc(F)cc3)c2=O)CC1
The “% Inhibition @ 10 uM” value of the first is higher: 1.31% for the first, -3.94% for the second.

Compared with O=C(NCC1CCCO1)c1cc(S(=O)(=O)N2CCCC2)c(Cl)cc1Cl (stereo not shown), O=C(NCCc1ccc(Cl)cc1)C1CCCO1 (stereo not shown) is lower in “% Inhibition @ 10 uM” value: 0.413% for the first, -0.834% for the second.

First: CC1=CC2=NC(=O)/C(=C\c3ccc(OCCOc4ccccc4Cl)cc3)C(=N)N2O1
Second: CC(C)Oc1ccc(NC(=O)COc2cccc(Cl)c2)cc1
The “% Inhibition @ 10 uM” value of the first is lower: -3.23% for the first, -1.63% for the second.

First: CCn1cc(Cl)c(C(=O)Nc2cc3oc4ccccc4c3cc2OC)n1
Second: Cc1cc(NC(=O)CSc2ccccc2)ccc1Cl
The “% Inhibition @ 10 uM” value of the first is higher: 4.65% for the first, 4.08% for the second.

First: CCOC(=O)c1nnn(-c2nonc2N)c1CS(=O)(=O)c1ccccc1
Second: CN(C)C(=N)c1[nH]nnc1SCc1ccccc1
The “% Inhibition @ 10 uM” value of the first is higher: 4.84% for the first, -5.14% for the second.

First: O=C(O)CCCS(=O)(=O)c1nc(-c2cccs2)cc(C(F)(F)F)n1
Second: CN1CCN(C(=O)c2cnn3c(C(F)(F)F)cc(-c4cccs4)nc23)CC1
The “% Inhibition @ 10 uM” value of the first is higher: 11.6% for the first, -1.2% for the second.

Compared with CCCOc1ccc(-c2nonc2NC(=O)c2ccc(F)cc2)cc1OCCC, CCOc1ccc(CCNS(=O)(=O)c2ccc3ncc(C(=O)O)c(O)c3c2)cc1OCC is higher in “% Inhibition @ 10 uM” value: -5.08% for the first, -0.601% for the second.

Going from Cc1ccccc1NC(=O)c1c(NC(=O)c2cccnc2)sc2c1CCC2 to CCn1c(C(=O)O)c(CNCc2ccccc2)c2ccc(C)cc21, the “% Inhibition @ 10 uM” value falls from 5.53% to -0.397%.

Going from N=C1S/C(=C\c2cn[nH]c2-c2ccc(F)cc2)C(=O)N1c1nccs1 to O=C(c1cccc(F)c1)N1CCN(c2nc(-c3ccc(F)cc3)cc(C(F)(F)F)n2)CC1, the “% Inhibition @ 10 uM” value falls from 8.38% to 5.5%.

First: Oc1ccccc1-c1nnc2n1N=C(c1ccc(Br)s1)CS2
Second: N#CC1=C(N)n2c(s/c(=C\c3ccccc3F)c2=O)=C(C(N)=O)C1c1ccccc1F (stereo not shown)
The “% Inhibition @ 10 uM” value of the first is lower: 7.41% for the first, 7.76% for the second.

Going from CC(C)N(CC#Cc1ccc(C#CCN(C(C)C)C(C)C)cc1)C(C)C to CN(C)S(=O)(=O)c1ccc2c(c1)oc(=O)c1cc(S(=O)(=O)N(C)C)ccc12, the “% Inhibition @ 10 uM” value falls from 0.962% to -5%.

Going from CN(C)CCN(C(=O)COc1ccccc1)c1nc2c(F)cccc2s1 to CC(C)(CNC(=O)c1ccccc1)CNC1=NS(=O)(=O)c2ccccc21, the “% Inhibition @ 10 uM” value rises from 0.174% to 7.44%.

Going from Cc1c(C(=O)N2CCCC2)oc2c1-c1nn(CC(=O)NCc3ccc4c(c3)OCO4)cc1CC2 to Cc1cc(-c2noc(-c3cc4ccccc4oc3=O)n2)c2ccccc2n1, the “% Inhibition @ 10 uM” value falls from 9.84% to -2.91%.

Going from Cc1c(C(C)c2c(C)n(C)n(-c3ccccc3)c2=O)c(=O)n(-c2ccccc2)n1C to Cn1c(=O)c2c(-c3ccccc3)n(-n3cnnc3)cc2n(C)c1=O, the “% Inhibition @ 10 uM” value rises from -4.58% to 2.32%.

First: Cc1cc(OCC(N)=O)ccc1Cl
Second: N#CCNC(=O)[C@@H](CO)NC(=O)OCc1ccccc1
The “% Inhibition @ 10 uM” value of the first is higher: -3.94% for the first, -6.56% for the second.

In the case of Cc1ccc(-c2nc3cc(NC(=O)C(C)C)ccc3o2)cc1, the “% Inhibition @ 10 uM” value is reported as -2.89% and -3.94%.
